Assay results from publication PMC6053597, “Coupling of polymerase and carrier lipid phosphatase prevents product inhibition in peptidoglycan synthesis” (The Cell Surface, 2018).
These are yes or no findings as the source states them, for the method shown. Some results given as binding are weak or reduced against the parent protein; the word gives no strength. Sequences can lack the tags named with a protein.

T1: ht-BacA (N-terminal His6-tagged version of BacA) (E. coli) (UniProt P60932)
T1 sequence: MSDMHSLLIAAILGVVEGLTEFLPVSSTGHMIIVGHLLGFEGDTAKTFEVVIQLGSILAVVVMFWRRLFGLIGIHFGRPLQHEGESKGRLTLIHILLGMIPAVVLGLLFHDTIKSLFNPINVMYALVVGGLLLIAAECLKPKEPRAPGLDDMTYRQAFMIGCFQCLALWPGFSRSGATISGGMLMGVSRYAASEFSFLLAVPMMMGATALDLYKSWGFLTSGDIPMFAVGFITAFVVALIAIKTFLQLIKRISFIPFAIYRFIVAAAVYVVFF

T2: PgpB-ht (C-terminal His6-tagged version of PgpB) (E. coli) (UniProt P0A924)
T2 sequence: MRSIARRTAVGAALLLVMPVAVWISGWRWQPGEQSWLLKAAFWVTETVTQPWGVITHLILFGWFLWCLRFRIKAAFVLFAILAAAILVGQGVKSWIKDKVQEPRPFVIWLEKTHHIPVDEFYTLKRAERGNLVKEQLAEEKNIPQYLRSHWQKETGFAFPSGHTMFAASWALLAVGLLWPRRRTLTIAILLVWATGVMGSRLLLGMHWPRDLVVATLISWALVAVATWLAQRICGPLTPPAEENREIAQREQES

T3: PBP1A (Penicillin-binding protein 1A), untagged (E. coli) (UniProt P02918)
T3 sequence: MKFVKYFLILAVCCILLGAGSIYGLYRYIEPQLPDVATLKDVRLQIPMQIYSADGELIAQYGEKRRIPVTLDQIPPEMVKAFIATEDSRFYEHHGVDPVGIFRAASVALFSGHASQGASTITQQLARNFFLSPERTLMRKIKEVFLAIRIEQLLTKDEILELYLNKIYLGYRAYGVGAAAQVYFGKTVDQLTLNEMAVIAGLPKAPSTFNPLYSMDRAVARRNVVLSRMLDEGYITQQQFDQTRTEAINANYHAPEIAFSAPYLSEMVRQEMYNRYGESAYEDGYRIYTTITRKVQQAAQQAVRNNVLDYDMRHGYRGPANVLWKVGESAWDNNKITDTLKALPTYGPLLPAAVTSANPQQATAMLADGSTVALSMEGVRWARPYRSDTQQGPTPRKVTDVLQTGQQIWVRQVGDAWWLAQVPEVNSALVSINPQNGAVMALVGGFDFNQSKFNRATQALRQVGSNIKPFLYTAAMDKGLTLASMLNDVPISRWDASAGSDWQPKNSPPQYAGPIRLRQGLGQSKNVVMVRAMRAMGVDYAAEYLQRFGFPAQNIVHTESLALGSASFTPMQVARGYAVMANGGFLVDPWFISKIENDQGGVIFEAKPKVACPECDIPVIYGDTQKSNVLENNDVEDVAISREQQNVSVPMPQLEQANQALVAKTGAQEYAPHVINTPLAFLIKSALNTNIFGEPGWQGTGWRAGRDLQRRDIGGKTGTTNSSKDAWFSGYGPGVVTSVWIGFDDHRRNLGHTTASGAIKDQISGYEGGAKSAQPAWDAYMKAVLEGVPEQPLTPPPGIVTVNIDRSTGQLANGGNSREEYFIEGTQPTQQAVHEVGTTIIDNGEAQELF

B1: PBP1B (Penicillin-binding protein 1B), untagged (enzyme, UniProt P02919 58-804)
chain: KPRGKRGWLWLLLKLAIVFAVLIAIYGVYLDQKIRSRIDGKVWQLPAAVYGRMVNLEPDMTISKNEMVKLLEATQYRQVSKMTRPGEFTVQANSIEMIRRPFDFPDSKEGQVRARLTFDGDHLATIVNMENNRQFGFFRLDPRLITMISSPNGEQRLFVPRSGFPDLLVDTLLATEDRHFYEHDGISLYSIGRAVLANLTAGRTVQGASTLTQQLVKNLFLSSERSYWRKANEAYMALIMDARYSKDRILELYMNEVYLGQSGDNEIRGFPLASLYYFGRPVEELSLDQQALLVGMVKGASIYNPWRNPKLALERRNLVLRLLQQQQIIDQELYDMLSARPLGVQPRGGVISPQPAFMQLVRQELQAKLGDKVKDLSGVKIFTTFDSVAQDAAEKAAVEGIPALKKQRKLSDLETAIVVVDRFSGEVRAMVGGSEPQFAGYNRAMQARRSIGSLAKPATYLTALSQPKIYRLNTWIADAPIALRQPNGQVWSPQNDDRRYSESGRVMLVDALTRSMNVPTVNLGMALGLPAVTETWIKLGVPKDQLHPVPAMLLGALNLTPIEVAQAFQTIASGGNRAPLSALRSVIAEDGKVLYQSFPQAERAVPAQAAYLTLWTMQQVVQRGTGRQLGAKYPNLHLAGKTGTTNNNVDTWFAGIDGSTVTITWVGRDNNQPTKLYGASGAMSIYQRYLANQTPTPLNLVPPEDIADMGVDYDGNFVCSGGMRILPVWTSDPQSLCQQSEMQQQPS
B2: PBP1A (Penicillin-binding protein 1A), untagged (enzyme, UniProt P02918 1-850)
chain: T3 sequence
B3: PgpB-ht (C-terminal His6-tagged version of PgpB) (enzyme, E. coli)
chain: T2 sequence
notes: PgpB, C55-PP pyrophosphatase (PAP2 family) of E. coli; amplified by PCR from genomic DNA of E. coli BW25113 and cloned into pET28a(+) (pET28a-pgpB); Purified according to Touzé et al., 2008a with modifications; also called oligohistidine tagged PgpB; source: E. coli C43(DE3), membrane fraction solubilised in DDM, purified (Ni-NTA); not shown: His6, C-terminal, kept

Experiments:
[1] = biological target: T1, ht-BacA (N-terminal His6-tagged version of BacA) (E. coli); test: pull-down + cross-linking; His-tagged phosphatase (3 μM PgpB-ht or 5 μM ht-BacA) mixed with 1.5 or 2.0 μM untagged PBP in 10 mM HEPES/NaOH, 10 mM MgCl2, 300 mM NaCl, 0.1% Triton X-100, pH 7.5; 0.2% formaldehyde 10 min 37 °C; captured on Ni-NTA beads; wash with 500 mM NaCl, 50 mM imidazole; SDS-PAGE, Coomassie; both purified
[2] = biological target: T2, PgpB-ht (C-terminal His6-tagged version of PgpB) (E. coli); test: as above
[3] = biological target: T1, ht-BacA (N-terminal His6-tagged version of BacA) (E. coli); test: pull-down; as a1 but without cross-linker; His-tagged phosphatase captured on Ni-NTA beads; wash buffer with 20 mM imidazole; SDS-PAGE, Coomassie; both purified
[4] = biological target: T2, PgpB-ht (C-terminal His6-tagged version of PgpB) (E. coli); test: as above
[5] = biological target: T3, PBP1A (Penicillin-binding protein 1A), untagged (E. coli); test: SPR; PBP1A or PBP1B covalently immobilised via their TPase active site on a sensor chip with bound ampicillin; PgpB-ht injected at 0.125-2 μM in 10 mM Tris/maleate pH 7.5, 150 mM NaCl, 5 mM imidazole, 5 mM β-mercaptoethanol, 0.05% DDM; 25 °C, 75 μL/min; equilibrium response fitted to a 1:1 model; apparent KD; both purified

Binder | binding [1] | binding [2] | binding [3] | binding [4] | binding [5]
B1 | binds | binds | binds | binds | 
B2 |  | no binding (tested: 1.5 or 2.0 μM PBP1A, 3 μM PgpB-ht) |  |  | 
B3 |  |  |  |  | no binding (tested: 2 µM)
